Assay [1] has as its target E. coli DNA gyrase (Escherichia coli (strain K12), UniProt P0AES4+P0AES6). Particulars: read-out: E. coli DNA Gyrase IC50. Here is the method:
E. coli gyrase supercoiling and its inhibition was assayed using a kit procured from Inpiralis (K0001) and the protocol (PMID: 2172086) was adapted with necessary modifications. The compounds to be tested weree incubated for 10 minutes with 2.5 nM of E. coli DNA gyrase in a 30 μl reaction volume and 3.2% DMSO. The reactions were then started with the addition of 60 ng relaxed pBR322 plasmid DNA and continued for 45 min at 37° C. The reaction mixture contained 35 mM Tris.HCl (pH 7.5), 24 mM KCl, 1.8 mM spermidine, 4 mM MgCl2, 2 mM DTT, 6.5% (w/v) glycerol, 0.1 mg/mL BSA, and 1 mM ATP. The reaction was then stopped by addition of 0.75 L of Proteinase K (20 mg/mL) and 3 μL of 2% SDS and further incubated at 37° C. for 30 min. This was followed by the addition of 4 μL of STEB (40% (w/v) sucrose, 100 mM Tris-HCl pH8, 1 mM EDTA, 0.5 mg/ml Bromophenol Blue), and the supercoiled/relaxed forms of plasmid DNA were separated by agarose gel electrophoresis. The 1% agarose gels were run for 3 h at 4V/cm in 1×TAE (40 mM Tris, 20 mM Acetic acid, 1 mM EDTA). To visualize the DNA the gels were stained for 10 min with 0.7 g/mL ethidium bromide and excess dye was removed by several washes with water. IC50 were determined by quantifying the supercoiled and relaxed DNA in each of the reactions from a gel image by a densitometric method using the Quantity One Software (Bio-rad).

Assay [2] deals with E. coli topoisomerase IV (Escherichia coli (strain K12), UniProt P0AFI2+P20083). Description: biochemical. The protocol:
E. coli topoisomerase IV decatenation activity and its inhibition was assayed using a kit procured from Inpiralis (D4002) and the kit protocol was adapted with necessary modifications similar to the gyrase supercoiling assays. The compounds to be tested were incubated for 10 minutes with 5 nM of E. coli topoisomerase IV in a 30 μl reaction volume and 3.2% DMSO. The reactions were started with the addition of 60 ng of kDNA and continued for 40 min at 37° C. The final reaction mixture contains 40 mM Tris.HCl (pH 7.6), 100 mM potassium glutamate, 10 mM magnesium acetate, 10 mM DTT, 1 mM ATP, and 50 μg/ml albumin. The reactions were stopped by addition of 0.75 L of Proteinase K (20 mg/mL) and 3 L of 2% SDS and further incubated at 37° C. for 30 min. This was followed by the addition of 4 L of STEB (40% (w/v) sucrose, 100 mM Tris-HCl pH8, 1 mM EDTA, 0.5 mg/ml Bromophenol Blue) and the kDNA/minicircles forms were separated by agarose gel electrophoresis. The 1% agarose gels were run for 3 h at 4V/cm in 1×TAE (40 mM Tris, 20 mM Acetic acid, 1 mM EDTA). To visualize the DNA, the gels were stained for 10 min with 0.7 μg/mL ethidium bromide and excess dye was removed by several washes with water. IC50 were determined by quantifying the Kinetoplast DNA band inside the gel well and decatenated minicircles that migrate into the gel in each of the reactions from a gel image by a densitometric method using the Quantity One Software (Bio-rad).

One may read the IC50 as the point on the concentration scale where inhibition reaches its midpoint. Consider `Cn1c(=O)cnc2ccc(OCCNCCC3CN(c4ccc5c(n4)NC(=O)CO5)C(=O)O3)nc21` (stereo not shown) [Compound 1, 6-(5-(2-((2-((4-methyl-3-oxo-3,4-dihydropyrido[2,3-b]pyrazin-6-yl)oxy)ethyl)amino)ethyl)-2-oxooxazolidin-3-yl)-2H-pyrido[3,2-b][1,4]oxazin-3(4H)-one], for which the IC50 in assay [1] stood at 67 nM; in assay [2], 41 nM.
`Cn1c(=O)ccc2ncc(OCCNCCC3CN(c4ccc5c(n4)NC(=O)CO5)C(=O)O3)nc21` (stereo not shown) [Compound 2, 6-(5-(2-((2-((5-methyl-6-oxo-5,6-dihydropyrido[2,3-b]pyrazin-3-yl)oxy)ethyl)amino)ethyl)-2-oxooxazolidin-3-yl)-2H-pyrido[3,2-b][1,4]oxazin-3(4H)-one]: the IC50 in assay [1] stood at 27 nM; in assay [2], 20 nM.
`Cn1c(=O)cnc2ccc(OCCNC[C@H]3CN(c4ccc5c(n4)NC(=O)CO5)C(=O)O3)nc21` [Compound 3, (S)-6-(5-(((2-((4-methyl-3-oxo-3,4-dihydropyrido[2,3-b]pyrazin-6-yl)oxy)ethyl)amino)methyl)-2-oxooxazolidin-3-yl)-2H1-pyrido[3,2-b][1,4]oxazin-3(4H)-one] displayed an IC50 in assay [2] of 125 nM.
As for `Cn1c(=O)cnc2ccc(OCCNC[C@@H]3CN(c4ccc5c(n4)NC(=O)CO5)C(=O)O3)nc21` [Compound 4, (R)-6-(5-(((2-((4-methyl-3-oxo-3,4-dihydropyrido[2,3-b]pyrazin-6-yl)oxy)ethyl)amino)methyl)-2-oxooxazolidin-3-yl)-2H-pyrido[3,2-b][1,4]oxazin-3(4H)-one], the half-inhibitory concentration (IC50) was 51 nM in assay [1] and 241 nM in assay [2].
As to `Cn1c(=O)ccc2ncc(OCCNC[C@H]3CN(c4ccc5c(n4)NC(=O)CO5)C(=O)O3)nc21` [Compound 5, (S)-6-(5-(((2-((5-methyl-6-oxo-5,6-dihydropyrido[2,3-b]pyrazin-3-yl)oxy)ethyl)amino)methyl)-2-oxooxazolidin-3-yl)-2H1-pyrido[3,2-b][1,4]oxazin-3(4H)-one], the half-maximal inhibitory concentration (IC50) in assay [2] was 176 nM.
As for `Cn1c(=O)cnc2ccc(OCCNC[C@H]3CN(c4cnc5c(n4)NC(=O)CO5)C(=O)O3)nc21` [Compound 7, (S)-6-(5-(((2-((4-methyl-3-oxo-3,4-dihydropyrido[2,3-b]pyrazin-6-yl)oxy)ethyl)amino)methyl)-2-oxooxazolidin-3-yl)-2H-pyrazino[3,2-b][1,4]oxazin-3(4H)-one], the IC50 in assay [1] is 18 nM; in assay [2] it was 48 nM.
